PubChem BioAssay AID1508642 (National Center for Advancing Translational Sciences (NCATS), 2021)
The campaign covered roughly 43,000 compounds. About 200 (0.47%) were called active. Roughly 12% stayed inconclusive and do not appear here. Calls come from the whole dose curve; as a rule, active = well fitted cell-killing curve with a large enough effect; inconclusive = small, poorly fitted or top-dose-only effect, or effect the other way; inactive = flat fitted curve, though single readings scatter. This is one part of the list.

Test: Cell viability qHTS assay in S16 Pmp22-F2sN cells; note: nearly all actives have a fitted effect of over 65% in size
Settings: S16 Pmp22-F2sN Schwann cells (luciferase reporters placed in the Pmp22 gene) viability, CellTiter-Glo, 24 h; series mostly up to 57.5 µM; activity change, negative = cytotoxicity: at the top concentration
How it was run: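 Seed 500-1,000 S16 Pmp22-F2sN cells per well in phenol-red-free DMEM with 10% heat-inactivated FBS; pin-add 23 nL compound; incubate 24 h at 37C; add CellTiter-Glo, wait 15 min protected from light; read luminescence.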
% is set by controls: 0 for no effect and ±100 for the full control effect; potency is the fitted concentration of half-maximal effect.

Row | SMILES | activity change, negative = cytotoxicity | Potency
1 | COc1cc(Cl)c(C)cc1Nc1ncnc2c1nc1n2CCCC1 | inactive: 18.7% | –
2 | Cc1ccc(NC(=O)CC(C)S(=O)(=O)c2ccc3c(c2)NC(=O)CO3)cc1Cl (centres undefined) | inactive: 10.6% | –
3 | Cc1nc2nc(SCC(=O)NCc3ccccc3Cl)nn2c(C)c1Cc1ccccc1 | inactive: -19.8% | –
4 | CCOC(=O)c1cc(-c2ccccc2)n(-c2cccc(C(=O)Nc3ccc(OCC)cc3)c2)c1C | inactive: 9.69% | –
5 | Cc1ccc(Nc2nn3c(=O)c4cc5c(cc4nc3s2)OCO5)cc1Cl | inactive: 4.87% | –
6 | COc1ccc(Cl)cc1NC(=O)CN1C(=O)COc2ccc(S(=O)(=O)NC3CCCC3)cc21 | inactive: 7.72% | –
7 | COCCCNC(=O)CSc1nc2cc(OC)c(OC)cc2c2nc(-c3ccccc3)nn12 | inactive: -1.88% | –
8 | CS(=O)(=O)CCC(C(=O)Nc1cccc(C(F)(F)F)c1)N1Cc2ccccc2C1=O (centres undefined) | inactive: -10.4% | –
9 | Cc1ccc(OCc2nc3ccccc3n2CCOc2ccc(Cl)cc2)cc1 | inactive: -11.3% | –
10 | CC1CCCN(C(=O)c2cc3c(Cl)nc4ccccc4c3s2)C1 (centres undefined) | inactive: 0.339% | –
11 | O=C(c1ccco1)c1cn(CCOc2ccc(F)cc2)c2ccccc12 | inactive: 1.54% | –
12 | CCc1ccc(NC(=O)CCS(=O)(=O)c2ccc3c(c2)n(C)c(=O)c(=O)n3C)cc1 | inactive: 10.6% | –
13 | CC(C)COc1ccc(C(=O)N(Cc2ccc(N(C)C)cc2)Cc2ccco2)cc1 | inactive: -6.07% | –
14 | CC1CCCCN1c1nnc(NC(=O)Nc2ccccc2F)s1 (centres undefined) | inactive: -1.76% | –
15 | CCC(Cn1nnc2ccccc2c1=O)NC(=O)Nc1ccc(C)c(C)c1 (centres undefined) | inactive: -9.19% | –
16 | Cc1ccc(-c2nc(SCC(=O)NCc3ccco3)c3c(=O)n(C)c(=O)n(C)c3n2)cc1 | inactive: -22% | –
17 | CC(C)c1ccc(NC(=O)Cn2c(=O)n(CCc3ccccc3)c(=O)c3ccccc32)cc1 | inactive: 3.08% | –
18 | CC(C)c1cccc(C(C)C)c1NC1=NS(=O)(=O)c2ccccc21 | inactive: -1.75% | –
19 | O=C(Cc1ccccc1)Nc1cccc(-c2cn3cccnc3n2)c1 | inactive: 1.71% | –
20 | Cc1ccc(Cn2c(=O)n(CCCC(=O)NCc3ccccc3Cl)c(=O)c3ccccc32)cc1 | inactive: -0.284% | –
21 | COc1ccc(OC)c(NC(=O)c2c(NCc3cccs3)sc3c2CCCC3)c1 | inactive: 4.28% | –
22 | COC(=O)c1cnc(N2CCN(c3ccccc3F)CC2)c2ccccc12 | inactive: 3.13% | –
23 | Cc1ccc(NC(=O)C2CCN(c3nc4ccccc4[nH]3)CC2)c(C)c1 | inactive: 13.8% | –
24 | COCCN1C(=O)c2[nH]nc(-c3cc(C)ccc3O)c2C1c1ccc(C(C)C)cc1 (centres undefined) | inactive: -0.0049% | –
25 | CCc1ccccc1NC(=O)c1cc(S(=O)(=O)N2CCCC2)cn1C | inactive: 5.07% | –

Row | SMILES | activity change, negative = cytotoxicity | Potency
26 | Cc1cccc(N2CCN(C(=O)CCc3c(C)nc4ncnn4c3C)CC2)c1C | inactive: 3.97% | –
27 | CCOc1ccccc1NC(=O)c1cc2c(=O)oc3ccccc3c2s1 | inactive: -4.97% | –
28 | O=C(c1ccc(CSc2nc3ccncc3n2Cc2cccc(F)c2)cc1)N1CCCCCC1 | inactive: -0.942% | –
29 | Cc1cncn1CCc1nc2c3ccccc3nc(SCC(=O)Nc3cccc(Cl)c3)n2n1 | – | active: 28.2 µM
30 | Cc1ccc(CNS(=O)(=O)c2cc3c(cc2C)NC(=O)CO3)cc1 | inactive: -8.4% | –
31 | COc1ccc(OC)c(NC(=O)CN2C(=O)COc3ccc(S(=O)(=O)NC4CCCC4)cc32)c1 | inactive: 10.5% | –
32 | CN(CC(=O)Nc1cccc(C(F)(F)F)c1)S(=O)(=O)c1cccs1 | inactive: 4.28% | –
33 | O=C(Cn1c(-c2cccs2)cc2ccccc21)NCCc1ccc(Cl)cc1 | inactive: -14.9% | –
34 | CCOc1ccc(S(=O)(=O)Nc2ccc3c(c2)N(C(C)=O)CCC3)cc1 | inactive: 1.01% | –
35 | Cc1nc2c(c(C)nn2-c2ccccc2)c(C)c1CCC(=O)NCCc1ccccc1 | inactive: -10% | –
36 | Cn1nnc2c(NCc3ccccc3Cl)ncnc21 | inactive: -22.5% | –
37 | CCCC(=O)Nc1nnc2n1CCS2 | inactive: 8.22% | –
38 | O=C(CSc1nc2c(c(=O)[nH]1)CN(Cc1ccc3c(c1)OCO3)CC2)Nc1cccc(Cl)c1 | inactive: 5.49% | –
39 | Cc1cccc(Cn2cc3c(=O)n(CC(=O)Nc4ccc(C)c(F)c4)nc-3c3cc(F)ccc32)c1 | inactive: 7.16% | –
40 | COc1ccc(CC(=O)NCc2nc3cccnc3n2Cc2ccc(C)cc2)cc1OC | inactive: 5.53% | –
41 | CCOC(=O)c1noc2ncnc(N3CCC(C)CC3)c12 | inactive: -17.1% | –
42 | CCOc1ccc(Oc2nc(NC)nc(N3CCOCC3)n2)nn1 | inactive: -4.41% | –
43 | O=c1oc2ccc(Br)cc2cc1-c1csc(-c2ccccc2)n1 | inactive: 5.66% | –
44 | CCOC(=O)c1cc(NC(=O)c2ccc(C)cc2)c(=O)n2c1oc1ccc(Cl)cc12 | inactive: 3.45% | –
45 | Cc1ccc(N2CC(NC(=O)c3ccc(S(=O)(=O)N4CCCCC4)cc3)CC2=O)cc1 (centres undefined) | inactive: 2.95% | –
46 | COC(=O)c1ccc(NC(=O)c2cc(=O)c3ccc(C)cc3o2)cc1 | inactive: -18% | –
47 | COc1ccc(N2CC(NC(=O)c3cc4ccccc4o3)CC2=O)cc1OC (centres undefined) | inactive: 10.3% | –
48 | CCc1cccc(NS(=O)(=O)c2c(C)nc3sc(CC)nn3c2=O)c1 | inactive: -17.3% | –
49 | COc1cc(/C=C(\C#N)C(=O)Nc2ccc(C)cc2)ccc1OCc1cc(=O)n2nc(C)sc2n1 | inactive: -11.6% | –
